Measurements reported in paper PMC6919601, “Identification of Plasmodium dipeptidyl aminopeptidase allosteric inhibitors by high throughput screening” (PLoS ONE, 2019).
Among all 110,000 compounds or so, about 230 (0.21%) showed an effect of 50% or more. This is one part of the list.

These compounds were tested against DPAP1 (Plasmodium falciparum, UniProt Q8IIJ9) (assay: primary screen, percent inhibition; read by cleavage of a fluorogenic dipeptide substrate; higher = more effect of the substance).
Parameters: species or system P. falciparum D10 trophozoite lysates; single well
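Also: 30 min substrate incubation versus DMSO and 10 µM JCP410 controls.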

Chain of DPAP1 (Q8IIJ9 whole entry, looked up): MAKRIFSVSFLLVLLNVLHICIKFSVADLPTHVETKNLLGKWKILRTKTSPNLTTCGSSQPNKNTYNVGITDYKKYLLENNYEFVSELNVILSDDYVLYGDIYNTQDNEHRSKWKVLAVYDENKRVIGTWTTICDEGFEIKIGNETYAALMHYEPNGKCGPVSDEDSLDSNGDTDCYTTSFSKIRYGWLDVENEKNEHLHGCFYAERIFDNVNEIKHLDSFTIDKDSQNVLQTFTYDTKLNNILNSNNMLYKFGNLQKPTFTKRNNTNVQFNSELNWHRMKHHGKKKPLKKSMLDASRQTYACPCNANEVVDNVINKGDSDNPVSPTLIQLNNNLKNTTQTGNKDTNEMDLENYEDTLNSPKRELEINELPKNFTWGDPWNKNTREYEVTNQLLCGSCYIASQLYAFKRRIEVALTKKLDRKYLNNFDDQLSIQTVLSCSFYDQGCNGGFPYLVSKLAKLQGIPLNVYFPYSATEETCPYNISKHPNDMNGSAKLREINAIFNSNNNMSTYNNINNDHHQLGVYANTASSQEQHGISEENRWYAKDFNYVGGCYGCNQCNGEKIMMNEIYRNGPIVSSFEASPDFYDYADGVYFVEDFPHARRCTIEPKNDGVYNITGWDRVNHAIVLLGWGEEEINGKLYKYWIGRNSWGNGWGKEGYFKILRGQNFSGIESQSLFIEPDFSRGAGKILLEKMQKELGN

Structure (SMILES)	% Inhibition @ 10 uM [%]
CCOc1ccc(NC(=O)c2cc3ccccc3cc2OC)cc1	-1.66
CSc1[nH]c2ccccc2c1CC(=O)N(C)C	2.48
O=C(Nc1ccc(SC(F)(F)F)cc1)Nc1ccc(Cl)c(Cl)c1	-6.11
O=C(CSc1cn(CC(=O)N2CCOCC2)c2ccccc12)NCCc1ccccc1	-0.264
CCCc1nn(-c2ccc(F)cc2)c(O)c1/C=N/Cc1ccccc1Cl	-6.08
CCCN1CCC(Nc2cc(-c3ccccc3)ccc2OC)CC1	-1.82
CNc1c(Cl)cnn(-c2cccc(C(F)(F)F)c2)c1=O	2.46
COc1ccc(NC(=O)c2ccc(C)c(Br)c2)cc1	2.42
CC(C)C[C@H](NC(=O)c1csc(Nc2ccncc2)n1)C(=O)NCC#N	3.19
CCCCN1C(=O)c2cccc3c(NCCCOC)ccc(c23)C1=O	-12.8
CCCN1CC=C2C(C1)C(c1cccc(C(F)(F)F)c1)C(C#N)=C(N)C2(C#N)C#N (centres unmarked)	2.32
COc1cccc(C(=O)N2CCN(Cc3ccc(OC)cc3OC)CC2)c1	-9.65
Cn1c2ccccc2c2cnnc(O)c21	1.43
CCc1ccc(/C=C2\SC(N3CCOCC3)=NC2=O)cc1	5.05
COCCCn1c(=O)c2sccc2n2c(CCCC(=O)NC3CCCCCC3)nnc12	4.98
O=C(c1ccco1)N1CCN(C(=O)c2ccc(CS(=O)c3cccc(Cl)c3)o2)CC1 (centres unmarked)	-5.74
COC(=O)c1c(NC(=O)/C(C#N)=C/c2ccc(OC)cc2)sc2c1CCC(C)C2 (centres unmarked)	1.37
N#Cc1nc(/C=C/c2cccs2)oc1NCc1ccc(F)cc1	4.83
CCOC(=O)NS(=O)(=O)c1cnccc1Nc1cccc(C(F)(F)F)c1	-0.115
CCOC(=O)c1c(C)[nH]c(C)c1S(=O)(=O)N1CCC(C(=O)NCC2CCCO2)CC1 (centres unmarked)	-3.44
CCCN(CCC)S(=O)(=O)c1ccc(NC(=O)C2CCCO2)cc1 (centres unmarked)	0.408

Structure (SMILES)	% Inhibition @ 10 uM [%]
Cn1c(C(=O)N2CCC(C(=O)NCCN3CCC(Cc4ccccc4)CC3)CC2)cc2sccc21	3.4
CCOC(=O)C1=C(C)N=c2s/c(=C\c3cccs3)c(=O)n2C1c1ccc(N(C)C)cc1 (centres unmarked)	2
COc1ccc2c(c1)CCC1=C2N=C(S)NC1c1ccc(C)cc1 (centres unmarked)	-3.23
O=C(NC(Cc1c[nH]c2ccccc12)C(=O)NCc1ccccc1)c1ccccc1 (centres unmarked)	1.88
Cc1ccc(C(=O)/C=C/c2cn(CC(O)CN3CCOCC3)c3ccccc23)cc1 (centres unmarked)	-5.36
COc1cc(C(=O)NCCC(=O)NCCCN2CCCCC2C)cc(OC)c1OC (centres unmarked)	-0.519
COCc1cc(C)nc(SCC(=O)Nc2ccc(F)c(F)c2F)c1C#N	3.05
Cc1cc(N2CCN(C3CCCCC3)CC2)nc2cc(O)ccc12	-2.88
CCOc1ccc(-c2nn3c(-c4cc(OC)c(OC)c(OC)c4)nnc3s2)cc1	56.2
CC(C)C[C@H](NC(=O)OCCOc1ccccc1)C(=O)NCC#N	9.99
CCn1c(C)[n+](CC)c2cc(S(=O)(=O)N3CCCCC3)ccc21	-4.48
CCOC(=O)N1CCN(C(=O)CSc2nnc(-c3ccc4c(c3)OCCO4)o2)CC1	7.15
COc1ccc(CN(C(=O)COc2ccc(Br)cc2)C2CCS(=O)(=O)C2)cc1 (centres unmarked)	3.87
CCN(CC)CCN1C(=O)C(O)=C(C(=O)c2cccs2)C1c1ccc(C)o1 (centres unmarked)	-10.8
COc1ccc(C2C3=C(O)CC(C)(C)CC3=NC(C)=C2C(=O)Nc2ccc(F)cc2)c(OC)c1 (centres unmarked)	-4.48
Cc1cc(C(F)(F)F)n2nc(CNC(=O)c3ccccc3)nc2n1	-2.17
COc1ccc(C2C(C(=O)OC(C)C)=C(C)N=c3s/c(=C\c4ccc(C)o4)c(=O)n32)cc1 (centres unmarked)	3.66
COc1ccccc1N1CCN(Cc2ccccc2Cl)CC1	3.16
Cc1ccccc1CN1CCN(CC(=O)NCc2ccc(F)cc2)C1=O	-0.971
Cc1ccc(-c2nc(CS(=O)(=O)CC(=O)NC3CCCC(C)C3C)c(C)o2)cc1 (centres unmarked)	-0.138
CCOC(=O)N1CCN(C(=O)c2cc3c(Cl)nc4ccccc4c3s2)CC1	-2.45

Structure (SMILES)	% Inhibition @ 10 uM [%]
COc1ccc(C2C(C#N)=C(N)N(c3nc[nH]n3)C3=C2C(=O)CC(C)(C)C3)c(OC)c1 (centres unmarked)	-0.99
Cc1ccc(C(=O)NCc2ccc(S(N)(=O)=O)cc2)cc1C	-5.58
CCOC(=O)c1c(C)[nH]c(C)c1S(=O)(=O)N(C)CC(=O)NCc1cccs1	2.24
CN1CCCC/C1=N\CCn1cnc2c1c(=O)n(C)c(=O)n2C	-10.2
CCOc1ccc(C(=O)N2CCN(c3ccc(F)cc3)CC2)cc1	1.92
O=C(O)CCC(=O)Nc1cccc2c(NC(=O)CCC(=O)O)cccc12	-4.61
Cc1cc(C(=O)Nc2c(C)nn(Cc3c(Cl)cccc3Cl)c2C)no1	-0.591
NC(=O)c1ccc(-n2nnnc2SCC(=O)c2ccc(O)c(O)c2)cc1	1.62
c1c2c(cc3c1OCO3)OCN(CCOC13CC4CC(CC(C4)C1)C3)C2	3.5
Cc1cccn2c(=O)c3cc(C(=O)NCc4ccccc4Cl)n(C)c3nc12	0.522
Cc1ccc2oc(=O)c3cnn(CC(=O)Nc4cccnc4Cl)c3c2c1	-1.7
CCc1ccc2oc(-c3cccc(N)c3)nc2c1	-3.9
COc1ccc(CCNC(=O)CSc2nc(O)cc(O)n2)cc1OC	1.96
O=C(N/C(=C/c1cccs1)C(=O)N1CCCCCC1)c1cccs1	3.72
Cc1nn(-c2ccccc2)c(N2CCCCC2)c1C=O	12.8
O=P(O)(CN1CCOCC1)C1CCCCC1O (centres unmarked)	0.132
CC1CCCC(NC(=O)C2CCCN2S(=O)(=O)c2cccc3nsnc23)C1C (centres unmarked)	2.72
Cc1ccc(OCC(=O)Nc2nnc(C(C)C)s2)c(Br)c1	-6.69
CC(C)CCn1c(CCNC(=O)C2CCCCC2)nc2ccccc21	-1.74
O=C1N=C(Nc2ccccc2Cl)S/C1=C/c1ccco1	-9.82
